# Out of some 45,000 compounds screened, about 200 (0.44%) were called active. Roughly 7% stayed inconclusive and do not appear here. Calls come from the whole dose curve; as a rule, active = well fitted activation curve with a large enough effect; inconclusive = small, poorly fitted or top-dose-only effect; inactive = no such curve, though single readings can be large or run the other way. This is one part of the list.
# Experiment: qHTS of TDP-43 Inhibitors: NCGC Sytravon Library Screen; note: 0% is about no effect; nearly all actives have a fitted effect of over 55% in size
# Conditions: yeast TDP-43 toxicity rescue, BacTiter-Glo growth, 24 h; series mostly up to 46.1 µM; growth rescue (activation): at the top concentration
# Outline: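 TDP-43-expressing yeast, pregrown in raffinose, seeded at OD600 0.02 in galactose medium with compound for 24 hr at 30 deg C. Growth read by BacTiter-Glo luminescence, so rescue of toxicity appears as activation.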
row,Structure (SMILES),growth rescue (activation)
1,CC(C)CSC1=NSC2=NC(=O)/C(=C\c3coc4ccccc4c3=O)C(=N)N12,inactive: 21.7%
2,Cc1ccccc1C(=O)NCCNC(=O)c1ccco1,inactive: -5.83%
3,COc1ccc(-c2ccc(CCC(=O)O)n2NC(=O)c2ccc(C(C)(C)C)cc2)cc1,inactive: 6.63%
4,CC1(C(=O)NCc2cccc3ccccc23)CCN1C(=O)Cc1ccc(-c2ccccc2)cc1 (stereo unspecified),inactive: 24.7%
5,Cc1cc(NC(=O)CN2C(=O)NC3(CCCCC3)C2=O)ccc1N1CCCC1,inactive: 2.08%
6,Cc1cccc(NC(=S)N2CCCCCC2)c1,inactive: 16.6%
7,O=C(O)c1cccc(S(=O)(=O)N2CCC(n3nnc4cc(C(F)(F)F)ccc43)CC2)c1,inactive: 2.14%
8,CSc1nsc(SC)c1NC(=O)N1CCCCC1,inactive: -7.45%
9,C(=N\N(c1ccccc1)c1ccccc1)/c1ccccn1,inactive: -9.22%
10,COc1ccc(CC(=O)Nc2sc3c(c2C(N)=O)CCCC3)cc1,inactive: 11.9%
11,CC1(C(=O)OCC(=O)NC(=O)NCc2ccccc2)CC1(Cl)Cl (stereo unspecified),inactive: 18.8%
12,Cc1ccnc(Nc2nc(-c3ccc(O)c(O)c3)cs2)c1,inactive: 2.66%
13,COC(=O)c1cc(NC(=O)Cn2c(=O)oc3ccccc32)cc(C(=O)OC)c1,inactive: 0.137%
14,COc1cc(/C=C/C(=O)OCC(=O)Nc2cc(S(=O)(=O)N3CCCC3)ccc2Cl)cc(OC)c1OC,inactive: 8.32%
15,O=C(O)C1C2CCC(O2)C1C(=O)Nc1ccc(OC(F)F)cc1 (stereo unspecified),inactive: 1.95%
16,CCN1CCN(C(=O)c2c(-c3ccccc3)noc2C)CC1,inactive: -5.61%

row,Structure (SMILES),growth rescue (activation)
1,O=C(NCC(c1ccco1)S(=O)(=O)c1cccs1)c1ccc(Cl)cc1 (stereo unspecified),inactive: 26.7%
2,CCC(=O)N1CCCC1(C)C(=O)Nc1ccc2nc(C)ccc2c1 (stereo unspecified),inactive: 3.1%
3,COCCN(C(=O)c1csnn1)C(C(=O)NC1CCCC1)c1ccccc1F (stereo unspecified),inactive: 9.19%
4,CN(C)c1cccc2c(/C=N/O)ccc(N(C)C)c12,inactive: 0.413%
5,CC(=O)c1cccc(NC(=O)c2ccc(-c3c(C)noc3C)c3ccoc23)c1,inactive: 9.84%
6,NC(=O)NOCc1c(F)cccc1Cl,inactive: 6.26%
7,Cc1sc2nc(CSc3cccc(C(F)(F)F)c3)[nH]c(=O)c2c1C,inactive: 14.1%
8,COc1ccc(C(=O)NC(C)c2cnn(-c3ccccn3)c2C)o1 (stereo unspecified),inactive: 15%
9,S=c1[nH]c2ccc3ccccc3c2[nH]1,inactive: -8.35%
10,COc1ccc(CCNC(=O)COc2cccc(-n3cnnn3)c2)cc1,inactive: 18.1%
11,CN1CCN(c2ccc(NC(=O)COc3ccc4ccccc4c3)cc2)CC1,inactive: 11%
12,CCCC(C)NC(=S)NC(=O)c1cc(S(=O)(=O)N2CCOCC2)ccc1C (stereo unspecified),inactive: 7.35%
13,COc1cccc(C(=O)NC(=S)Nc2nnn(C)n2)c1,inactive: 5.76%
14,CCOC(=O)/C=C1\SCC(=O)N1CC(=O)N1CCOCC1,inactive: -5.21%
15,COc1ccc(-c2cnc3c(NC(C)=O)cc(-c4cccc(C(=O)N(C)C)c4)cn23)cc1OC,inactive: 2.51%

# Reference: PubChem BioAssay AID1347073 (National Center for Advancing Translational Sciences (NCATS), 2019)
